# Test results taken from PubChem BioAssay (NCI).
#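 Briefly, cells in 96-well plates were exposed to five compound concentrations for 48 h, and endpoints were estimated by linear interpolation. Here, GI50 denotes the concentration required for 50% inhibition of growth. Definition used: TGI = concentration required for complete inhibition of growth.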
# Tests used:
# Assay in all cases: NCI-60 cell line screen, 48 h
# DU-145 prostate = test system: DU-145 prostate
# MDA-MB-435 = test system: MDA-MB-435
# T-47D breast = test system: T-47D breast
# HS 578T breast = test system: HS 578T breast
# SK-MEL-5 melanoma = test system: SK-MEL-5 melanoma
# M14 melanoma = test system: M14 melanoma
# MDA-MB-231 breast = test system: MDA-MB-231 breast
# BT-549 breast = test system: BT-549 breast
smiles,measurement,setting,value
CN[C@@H]1C[C@H]2O[C@@](C)([C@@H]1OC)n1c3ccccc3c3c4c(c5c6ccccc6n2c5c31)C(=O)NC4,GI50,DU-145 prostate,< 10 nM
same,TGI,DU-145 prostate,931 nM
same,GI50,MDA-MB-435,30.8 nM
same,TGI,MDA-MB-435,231 nM
same,GI50,T-47D breast,20.7 nM
same,TGI,T-47D breast,339 nM
same,GI50,HS 578T breast,< 10 nM
same,TGI,HS 578T breast,2460 nM
same,GI50,SK-MEL-5 melanoma,28.2 nM
same,TGI,SK-MEL-5 melanoma,203 nM
same,TGI,M14 melanoma,1470 nM
same,GI50,MDA-MB-231 breast,< 10 nM
same,TGI,MDA-MB-231 breast,201 nM
same,GI50,BT-549 breast,< 10 nM
same,TGI,BT-549 breast,38.3 nM
